Toxic doses and inconclusive results are not listed. Not every entry of the source has a single result; some have several. The list is limited to them. An entry can have further records. Values given together differ, and nothing given here explains why; some may be repeats, others may stem from another dose, organism or construct than stated.

The test system of the assay is BDF1 mice, P388 leukemia ip, median survival T/C. The assay can be described thus: NCI In Vivo Anticancer Drug Screen. Data for tumor model P388 Leukemia (intraperitoneal) in B6D2F1 (BDF1) mice. To be noted: endpoint: median survival time, higher = longer survival. The method, boiled down:
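Antitumour effect was judged in vivo: survival in drug-treated mice, normalised to that of vehicle-dosed controls, gives the reported T/C.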

As to `C=CCSc1nc(N)nc2c1ncn2C1CC(O)C(CO)O1` (configuration not stated), where the note is “dose: 200.0 mg/kg/injection, schedule: Q01DX009 (ip), vehicle: saline”, the T/C is 118 % of control and 152 % of control.

In the case of `CC(CN1CC(=O)NC(=O)C1)N1CC(=O)NC(=O)C1` (configuration not stated), the T/C (dose: 100.0 mg/kg/injection, schedule: Q04DX003 (ip), vehicle: Klucel (hydroxypropylcellulose) (HPC)) was 123 % of control and 151 % of control; the T/C (dose: 800.0 mg/kg/injection, schedule: Q04DX003 (ip), vehicle: Klucel (hydroxypropylcellulose) (HPC)) was 86 % of control and 159 % of control.

Turning to `COc1cc([C@@H]2c3cc4c(cc3[C@@H](OC3OC5COC(C)OC5C(O)C3O)[C@H]3COC(=O)[C@H]23)OCO4)cc(OC)c1O` (some centres not stated), the T/C was 112 % of control and 200 % of control (dose: 20.0 mg/kg/injection, schedule: Q04DX003 (ip), vehicle: saline); 112 % of control and 200 % of control (dose: 24.0 mg/kg/injection, schedule: Q04DX003 (ip), vehicle: saline).

In the case of `COc1cc2c(cc1OC)C(OC)N(C)c1c-2ccc2cc3c(cc12)OCO3` (configuration not stated), the T/C is 118 % of control and 165 % of control (dose: 80.0 mg/kg/injection, schedule: Q01DX009 (ip), vehicle: saline with Tween-80); 86 % of control and 175 % of control (dose: 120.0 mg/kg/injection, schedule: Q01DX009 (ip), vehicle: saline with Tween-80).

Consider `CC[C@](O)(C(=O)O)c1cc2n(c(=O)c1CO)Cc1cc3ccccc3nc1-2`, for which the T/C (dose: 75.0 mg/kg/injection, schedule: Q01DX001 (ip), vehicle: saline) is 60 % of control and 168 % of control.

Turning to `COc1cccc2c1C(=O)c1c(O)c3c(c(O)c1C2=O)C[C@@](O)(C(C)=O)C[C@@H]3OC1CC(N)C(O)C(C)O1` (some centres not stated), the T/C was 117 % of control and 153 % of control (dose: 0.39 mg/kg/injection, schedule: Q01DX009 (ip), vehicle: water); 112 % of control and 177 % of control (dose: 0.78 mg/kg/injection, schedule: Q01DX009 (ip), vehicle: water).

For `COc1cccc2c1C(=O)c1c(O)c3c(c(O)c1C2=O)C[C@@](O)(/C(CO)=N/NC(=O)c1ccc(Cl)c(Cl)c1)C[C@@H]3OC1CC(N)C(O)C(C)O1` (some centres not stated), the T/C is 96 % of control and 191 % of control (dose: 1.56 mg/kg/injection, schedule: Q01DX009 (ip), vehicle: water); 106 % of control and 182 % of control (dose: 12.5 mg/kg/injection, schedule: Q01DX009 (ip), vehicle: water).

The values are drawn from PubChem BioAssay AID328 (DTP/NCI, 2004).
